Results published in PubChem BioAssay AID651813 (National Center for Advancing Translational Sciences (NCATS), 2012).
About 1,100 (52%) of roughly 2,100 compounds were called active. The set was probably picked from earlier hits. This list was built around the results that the source calls inconclusive (neither active nor inactive); the mix of calls is not that of the screen. Calls come from the whole dose curve; as a rule, active = well fitted inhibition curve with a large enough effect; inconclusive = small, poorly fitted or top-dose-only effect; inactive = no such curve, though single readings can be large or run the other way. Potencies of inconclusive entries are left out as doubtful fits.
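Note: hits raise yellow fluorescence by blocking Vif-driven A3G-eYFP degradation; nearly all actives have a fitted effect of over 70% in size.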
Potency is the fitted concentration of half-maximal effect; tags give direction and shape of the fitted curve.
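Throughout, for max response: max response given as percent of control signal.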

The compounds below were run against DNA dC->dU-editing enzyme APOBEC-3G (Homo sapiens) (UniProt Q9HC16) (assay: qHTS for inhibitors of Vif-A3G interactions: Cherry picks counterscreen). Conditions: HeLa A3G-eYFP + Vif (tagged APOBEC3G with the HIV-1 protein that degrades it), eYFP fluorescence, 24 h.
Sequence of UniProt Q9HC16 (Q9HC16 whole entry, looked up): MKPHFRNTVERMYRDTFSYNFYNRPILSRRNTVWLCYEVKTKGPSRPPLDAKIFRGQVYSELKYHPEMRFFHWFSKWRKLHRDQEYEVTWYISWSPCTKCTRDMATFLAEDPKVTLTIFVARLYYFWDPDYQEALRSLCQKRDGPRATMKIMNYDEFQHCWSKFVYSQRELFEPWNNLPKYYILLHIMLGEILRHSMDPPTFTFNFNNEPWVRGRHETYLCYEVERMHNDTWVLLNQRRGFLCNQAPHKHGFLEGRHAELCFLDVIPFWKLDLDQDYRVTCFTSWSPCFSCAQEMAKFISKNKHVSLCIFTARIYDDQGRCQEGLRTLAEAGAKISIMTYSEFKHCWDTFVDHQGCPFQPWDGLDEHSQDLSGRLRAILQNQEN
Outline: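 Readout is eYFP fluorescence (488 nm excitation, 500-530 nm emission) measured on Acumen Explorer after 24 h compound exposure, several concentrations, at 37 deg C. Cells: HeLa stably co-expressing Vif and C-terminally eYFP-tagged A3G; MG132 positive control.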
With `CC(C)(C)C(=O)Nc1sc2c(c1C#N)CCN(Cc1ccccc1)C2` the Potency was inconclusive [inhibitor, single point]. With `Cc1[nH]c2ccccc2c1/C=C/c1cc[n+](C)cc1` the Potency was active: 0.994 µM. In the case of `Cc1cc2nc3c(=O)n(CCc4ccccc4)c(=O)[nH]c3nc2cc1N`, the Potency is reported as active: 3.66 µM. With `O=C(COC(=O)c1ccc(NS(=O)(=O)c2cccs2)cc1)NCc1ccco1` the Potency was active: 15.8 µM. `CCCC1=[N+](CC(=O)c2ccc(Br)cc2)CCn2cccc21` was tested, and the max response was inactive: -25.2%. In the case of `Cc1ccc(NC(=O)Cc2ccc(-n3cccc3)cc2)c(C)c1`, the Potency is reported as inconclusive [inhibitor, single point]. In the case of `COc1ccccc1N1C(=O)c2cccc3c(C(=O)O)ccc(c23)C1=O`, the max response is reported as inactive: 6.39%. In the case of `Cc1cccc2c(=O)n3c(cc12)-c1[nH]c2ccccc2c1CC3`, the Potency is reported as inconclusive [inhibitor, single point]. `CCN(CC)c1ccc2c(c1)OC(N)=C(C#N)C2c1cccnc1` (centres undefined) was tested, and the Potency was active: 15.8 µM. With `COc1ccc(S(=O)(=O)N2CCCOC2CNC(=O)C(=O)NCCc2ccco2)cc1C` (centres undefined) the Potency was inconclusive [inhibitor, partial curve]. In the case of `O=Nc1ccc(O)c2ncccc12`, the Potency is reported as inconclusive [inhibitor, full curve, poor fit]. `CN(C)CCN(C(=O)/C=C/c1cccs1)c1nc2c(F)cc(F)cc2s1` was tested, and the max response was inactive: -22.8%. For `COc1cc(C=C2CCCC(=Cc3ccc(OCC4CO4)c(OC)c3)C2=O)ccc1OCC1CO1` (centres undefined), the Potency was inconclusive [inhibitor, single point]. `CSc1nsc(/C=C/Nc2ccc(Cl)cc2)c1C#N` was tested, and the Potency was inconclusive [inhibitor, single point]. With `C=CCN1C(=O)C2(NNc3ccccc3O2)c2ccccc21` (centres undefined) the Potency was inconclusive [inhibitor, single point]. In the case of `C[N+](C)(C)CCC(=O)N1C/C(=C/c2ccccc2)C(=O)/C(=C\c2ccccc2)C1`, the Potency is reported as inconclusive [inhibitor, single point]. For `CN(C)c1ccc(/C=C2/C[N+](C)(C)C/C(=C/c3ccc(N(C)C)cc3)C2=O)cc1`, the Potency was active: 8.2 µM. With `COc1ccc2oc(=N)c(C(=O)Nc3ccc(F)cc3)cc2c1` the Potency was inconclusive [inhibitor, partial curve]. For `CC(C)c1cccc(-c2ccc3c(c2)S(=O)(=O)c2cccc(C(=O)NCc4ccccc4)c2C3=O)c1`, the Potency was inconclusive [inhibitor, single point].
